{
  "source": "paper PMC6919601",
  "about": "“Identification of Plasmodium dipeptidyl aminopeptidase allosteric inhibitors by high throughput screening” (PLoS ONE, 2019)",
  "note": "Screen size: about 110,000 compounds; about 230 (0.21%) showed an effect of 50% or more. Some of the results follow.",
  "data": [
    {"molecular_target": "DPAP1 (Plasmodium falciparum, UniProt Q8IIJ9)", "sequence (Q8IIJ9 whole entry, looked up)": "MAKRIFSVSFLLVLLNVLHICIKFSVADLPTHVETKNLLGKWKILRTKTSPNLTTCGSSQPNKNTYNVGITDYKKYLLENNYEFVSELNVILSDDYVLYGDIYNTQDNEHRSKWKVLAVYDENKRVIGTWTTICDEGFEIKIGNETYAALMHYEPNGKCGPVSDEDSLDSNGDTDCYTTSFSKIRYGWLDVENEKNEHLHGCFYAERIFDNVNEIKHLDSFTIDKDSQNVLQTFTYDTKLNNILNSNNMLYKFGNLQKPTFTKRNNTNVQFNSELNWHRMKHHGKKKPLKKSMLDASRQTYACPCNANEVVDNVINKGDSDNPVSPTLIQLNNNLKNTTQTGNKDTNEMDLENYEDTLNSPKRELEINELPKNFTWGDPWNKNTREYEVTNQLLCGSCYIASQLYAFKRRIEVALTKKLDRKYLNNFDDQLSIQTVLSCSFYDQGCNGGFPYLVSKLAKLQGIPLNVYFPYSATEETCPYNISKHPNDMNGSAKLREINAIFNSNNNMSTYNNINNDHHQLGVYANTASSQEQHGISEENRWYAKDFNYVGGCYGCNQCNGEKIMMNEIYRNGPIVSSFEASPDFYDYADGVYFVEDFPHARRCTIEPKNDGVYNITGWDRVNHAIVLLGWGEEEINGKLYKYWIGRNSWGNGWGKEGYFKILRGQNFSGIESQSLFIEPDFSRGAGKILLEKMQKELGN", "experiment": "primary screen, percent inhibition; read by cleavage of a fluorogenic dipeptide substrate; higher = more effect of the substance", "set-up": "species or system P. falciparum D10 trophozoite lysates; single well", "experimental": "HTS was performed in black 384-well plates. The first and last two columns of each plate contained our negative (DMSO) and positive (10 μM JCP410) controls, and the 20 central columns the test compounds at 10 μM. Compounds were first diluted 50-fold into assay buffer (50 mM sodium acetate, 5 mM MgCl2, 10 mM β-mercaptoethanol, and 0.1% CHAPS, pH 5.5) from a 10 mM DMSO stock plates. One microliter of this 200 μM intermediate stock plate was dispensed into the assay plate. […] After 30 min, the reaction was quenched with 20 μL of 0.5 M acetic acid, and the fluorescent intensity measured at 523 nm (λex = 492 nm) using an Analyst HT multimode plate reader (Molecular Devices).", "units": {"% Inhibition @ 10 uM": "%"}, "values": [
      {"compound": "COc1ccc(OC)c(C2C=C(c3ccc(Cl)cc3)Nc3nnnn32)c1", "note": "(centres unmarked);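 note: 30 min substrate incubation versus DMSO and 10 µM JCP410 controls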", "% Inhibition @ 10 uM": 0.0842},
      {"compound": "Cc1ccc(-c2cc(C(=O)NCc3ccc(S(N)(=O)=O)cc3)c3ccccc3n2)cc1C", "% Inhibition @ 10 uM": -4.77},
      {"compound": "CC1(C)CC(O)c2ccccc2O1", "note": "(centres unmarked)", "% Inhibition @ 10 uM": 1.42},
      {"compound": "Cc1nc(CSc2cc(C)c3ccccc3n2)cs1", "% Inhibition @ 10 uM": 2.38},
      {"compound": "CCCCN(C(=O)c1ccc(Cl)cc1)C1=CC2CCC(C1)N2C", "note": "(centres unmarked)", "% Inhibition @ 10 uM": 2.25},
      {"compound": "C(=C\\c1ccccc1)/CN1CCN(C2CC3CCC2C3)CC1", "note": "(centres unmarked)", "% Inhibition @ 10 uM": -0.0908},
      {"compound": "COc1ccc2nc(NC(=O)Cn3cccc3)sc2c1", "% Inhibition @ 10 uM": 0.981},
      {"compound": "COc1cc(Cc2nnc(C(=O)NCCC3=CCCCC3)o2)cc(OC)c1OC", "% Inhibition @ 10 uM": 3},
      {"compound": "COCCCN1C(=O)S/C(=C/c2c[nH]c3ccc(Br)cc23)C1=O", "% Inhibition @ 10 uM": 2.4},
      {"compound": "CCOc1ccc(NC(=O)Cc2ccc(F)cc2)cc1", "% Inhibition @ 10 uM": -3.26},
      {"compound": "O=C(Cc1ncc(-c2ccccc2)cn1)c1ccccc1", "% Inhibition @ 10 uM": 0.035},
      {"compound": "Cc1cc(Br)ccc1NC(=O)c1ccc(Br)cc1", "% Inhibition @ 10 uM": 1.41},
      {"compound": "O=C(c1ccc(CSc2nc3ccncc3[nH]2)cc1)N1CCCCCC1", "% Inhibition @ 10 uM": 0.137},
      {"compound": "CCOc1cc(C2C(C#N)=C(N)Oc3[nH]nc(C)c32)ccc1OC(F)F", "note": "(centres unmarked)", "% Inhibition @ 10 uM": 0.851},
      {"compound": "COc1ccc(C2C3=C(O)CCCC3=Nc3ncnn32)c(OC)c1OC", "note": "(centres unmarked)", "% Inhibition @ 10 uM": 7.63},
      {"compound": "CC1CCN(c2nc3ccccc3c3nc(-c4cccnc4)nn23)CC1", "% Inhibition @ 10 uM": -0.692},
      {"compound": "O=C(CN1C(=O)S/C(=C\\c2ccccn2)C1=O)N1CCOCC1", "% Inhibition @ 10 uM": 0.931},
      {"compound": "O=C(Nc1ccccc1O)c1ccc2c(c1)C(=O)N(Cc1cccnc1)C2=O", "% Inhibition @ 10 uM": -1.22},
      {"compound": "O=C(O)c1ccc(CN2CCN(c3ccc(F)cc3)CC2)cc1", "% Inhibition @ 10 uM": -2.81},
      {"compound": "CCc1c(C)c2ccc3c(c2oc1=O)CN(Cc1cccc(OC)c1)CO3", "% Inhibition @ 10 uM": 1.6},
      {"compound": "CCOC(=O)NC(=O)CSc1nc(C(C)(C)C)cc(C(F)(F)F)c1C#N", "% Inhibition @ 10 uM": 0.726},
      {"compound": "COc1ccc(C(O)Cn2c(=N)n(CCN3CCCCC3)c3ccccc32)cc1", "note": "(centres unmarked)", "% Inhibition @ 10 uM": -2.14},
      {"compound": "Fc1ccc(CN2CCN(c3cccc(Cl)c3)CC2)cc1Br", "% Inhibition @ 10 uM": 3.1},
      {"compound": "CC(C)CCNC(=O)c1cc2c(s1)-c1ccccc1S(=O)(=O)C2", "% Inhibition @ 10 uM": 2.84},
      {"compound": "O=C(c1nn2c(c1Cl)NC(c1ccccc1)CC2C(F)(F)F)N1CCN2CCCC2C1", "note": "(centres unmarked)", "% Inhibition @ 10 uM": -0.725},
      {"compound": "C=CCNc1ccc(-c2ccccc2)cc1", "% Inhibition @ 10 uM": 6.69},
      {"compound": "Cc1cccc(NC(=O)CSc2nc3cc(C)ccc3[nH]2)c1", "% Inhibition @ 10 uM": 3.81},
      {"compound": "CCOC(=O)c1c(NC(=O)CNCCC(C)C)sc2c1CCCC2", "% Inhibition @ 10 uM": -1.45},
      {"compound": "COc1ccc(N(CN2C(=O)c3ccccc3C2=O)C(=O)c2cccc(OC)c2)cc1", "% Inhibition @ 10 uM": 1.42}
    ]}
  ]
}
